In paper PMC4336329 (PLoS ONE, 2015):
Screen size: about 310,000 compounds; about 2,200 (0.71%) showed an effect of 50% or more. Effects have a minus sign here. This is one part of the list.

Each molecule was assayed against human ether-à-go-go-related gene (hERG) potassium channel (human, UniProt Q12809) (assay: primary screen, population patch clamp on CHO cells stably expressing hERG).
Chain of human ether-à-go-go-related gene (hERG) potassium channel (Q12809 whole entry, looked up): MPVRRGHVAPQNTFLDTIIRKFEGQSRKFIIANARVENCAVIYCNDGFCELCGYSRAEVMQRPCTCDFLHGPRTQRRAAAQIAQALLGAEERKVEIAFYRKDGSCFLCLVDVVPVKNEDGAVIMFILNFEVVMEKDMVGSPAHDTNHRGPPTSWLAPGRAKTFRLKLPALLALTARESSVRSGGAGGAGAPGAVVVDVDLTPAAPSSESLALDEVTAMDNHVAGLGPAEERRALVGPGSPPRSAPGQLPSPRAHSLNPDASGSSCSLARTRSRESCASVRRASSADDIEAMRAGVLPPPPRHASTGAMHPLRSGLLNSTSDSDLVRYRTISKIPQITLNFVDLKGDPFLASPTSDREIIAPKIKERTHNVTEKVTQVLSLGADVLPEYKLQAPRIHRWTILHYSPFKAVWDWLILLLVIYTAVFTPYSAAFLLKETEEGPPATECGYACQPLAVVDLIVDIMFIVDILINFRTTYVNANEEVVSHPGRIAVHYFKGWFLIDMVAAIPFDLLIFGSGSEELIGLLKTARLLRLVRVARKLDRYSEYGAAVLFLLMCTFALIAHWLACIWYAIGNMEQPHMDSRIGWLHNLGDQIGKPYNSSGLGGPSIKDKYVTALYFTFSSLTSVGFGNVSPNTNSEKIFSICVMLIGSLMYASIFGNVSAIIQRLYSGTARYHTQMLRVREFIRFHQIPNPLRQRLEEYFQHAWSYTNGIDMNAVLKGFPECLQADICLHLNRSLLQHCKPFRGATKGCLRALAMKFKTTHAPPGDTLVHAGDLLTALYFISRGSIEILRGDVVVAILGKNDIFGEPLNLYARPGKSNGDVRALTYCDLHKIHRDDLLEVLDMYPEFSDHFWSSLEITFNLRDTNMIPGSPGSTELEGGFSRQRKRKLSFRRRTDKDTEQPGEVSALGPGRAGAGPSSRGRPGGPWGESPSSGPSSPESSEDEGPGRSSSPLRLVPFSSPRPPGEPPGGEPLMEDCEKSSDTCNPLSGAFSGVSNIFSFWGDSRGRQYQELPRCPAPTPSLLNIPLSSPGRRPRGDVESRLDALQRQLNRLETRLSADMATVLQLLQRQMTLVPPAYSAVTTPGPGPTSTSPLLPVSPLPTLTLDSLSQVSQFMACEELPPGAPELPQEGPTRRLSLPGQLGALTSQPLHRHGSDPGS

For `COC(=O)c1[nH]c2ccc(C)cc2c1NC(=O)CN1CCC(C)CC1`, which “hERG current change (%, negative = inhibition) at 1uM” value is on record?
The value was 18.2%.

For `CCOC(=O)N1CCC(N2C(=O)c3ccccc3C2Nc2ccc(S(=O)(=O)N(CC)CC)cc2)CC1` (centres unmarked), which “hERG current change (%, negative = inhibition) at 1uM” value is on record?
Its value is -3.48%.

How did the “hERG current change (%, negative = inhibition) at 1uM” value turn out when `Cc1ccc(Nc2c3c(nc4ncnn24)CCC3)cc1` was run?
The value was 6.04%.

`CC1CCCC(NC(=O)Cn2cc([N+](=O)[O-])ccc2=O)C1C` (centres unmarked) was tested. Which “hERG current change (%, negative = inhibition) at 1uM” value did it give?
The value was 4.41%.

How did the “hERG current change (%, negative = inhibition) at 1uM” value turn out when `Cc1noc(C)c1C(=O)Nc1nnc(CC(C)C)s1` was run?
The value was 8.61%.

Which “hERG current change (%, negative = inhibition) at 1uM” value does the source give for `O=C(c1ccccc1F)N(Cc1nc2ccccc2c(=O)[nH]1)C1CCCC1` here?
Its value is 3.13%.

For `O=C(NC1CCCCCC1)C1CCN(C(=O)Cc2ccccc2)CC1`, which “hERG current change (%, negative = inhibition) at 1uM” value is on record?
The value was 12.6%.

Which “hERG current change (%, negative = inhibition) at 1uM” value does the source give for `CC(C)N1C(=O)/C(=C\c2nc3ccccc3c(=O)n2-c2ccccc2)c2ccccc21` here?
Its value is 10.2%.

Which “hERG current change (%, negative = inhibition) at 1uM” value does the source give for `CCCN1Cc2cccc(C(N)=O)c2C1=O` here?
The value was 3.15%.

With `CCN(CC)CCn1c(NC(=O)c2ccccc2O)nc2ccccc21` as the molecule, how does the “hERG current change (%, negative = inhibition) at 1uM” value read?
The value was -17.9%.

Which “hERG current change (%, negative = inhibition) at 1uM” value does the source give for `CN(C)N1C(N)=C(C#N)C(c2ccccc2Cl)C2=C1CCCC2=O` (centres unmarked) here?
The value was 7.92%.

Which “hERG current change (%, negative = inhibition) at 1uM” value does the source give for `C=C(C)CNC(=S)N/N=C/c1ccc(NC(C)=O)cc1` here?
The value was 11%.

How did the “hERG current change (%, negative = inhibition) at 1uM” value turn out when `C/C(N)=C(/C#N)C(=O)CSc1nnc(Nc2cccc(C)c2)s1` was run?
Its value is 11.5%.

Which “hERG current change (%, negative = inhibition) at 1uM” value does the source give for `CC(C)Nc1nc(NC(C)C)nc(SCCOC(=O)Nc2ccc(Cl)cc2Cl)n1` here?
Its value is 6.83%.

How did the “hERG current change (%, negative = inhibition) at 1uM” value turn out when `COc1ccc(OCC(O)CNC(=O)Nc2ccc(F)cc2)cc1` (centres unmarked) was run?
The value was 14.9%.

How did the “hERG current change (%, negative = inhibition) at 1uM” value turn out when `COc1cccc(C2=NOC(C(=O)NCc3cccnc3)C2)c1` (centres unmarked) was run?
The value was 21.8%.

For `O=C(CCSc1ccccc1)NC1CCCC1`, which “hERG current change (%, negative = inhibition) at 1uM” value is on record?
The value was -0.156%.

For `Cc1ccccc1C(=O)Nc1ccc(-c2nc3ccc(C(=O)c4ccccc4)cc3[nH]2)cc1`, which “hERG current change (%, negative = inhibition) at 1uM” value is on record?
The value was 16.3%.

`COc1ccc2cc(CCNS(=O)(=O)c3ccc(NC(C)=O)cc3)c(=O)[nH]c2c1` was tested. Which “hERG current change (%, negative = inhibition) at 1uM” value did it give?
The value was 7.61%.

For `CC(=O)c1ccccc1NC(=O)COC(=O)/C(=C/c1ccccc1)n1nnnc1C`, which “hERG current change (%, negative = inhibition) at 1uM” value is on record?
Its value is 9.26%.

With `COc1ccc(OCCCCOc2ccccc2Cl)cc1` as the molecule, how does the “hERG current change (%, negative = inhibition) at 1uM” value read?
The value was 12.1%.

How did the “hERG current change (%, negative = inhibition) at 1uM” value turn out when `COCCN1Cc2cccc(C(=O)NCc3cccs3)c2C1=O` was run?
Its value is 11.3%.

With `CCn1c(=O)c(C(=O)CN2c3ccccc3CC2C)c(N)n(Cc2ccccc2)c1=O` (centres unmarked) as the molecule, how does the “hERG current change (%, negative = inhibition) at 1uM” value read?
Its value is 5.48%.

How did the “hERG current change (%, negative = inhibition) at 1uM” value turn out when `C[N+](C)(C)CC=O.[Cl-]` was run?
The value was 13.9%.

With `Cc1cc(C)c(S(=O)(=O)N(C)CC(=O)NCc2ccccn2)c(C)c1` as the molecule, how does the “hERG current change (%, negative = inhibition) at 1uM” value read?
The value was 7.65%.

`O=C(COc1ccccc1)N(Cc1cc2ccccc2[nH]c1=O)CC1CCCO1` (centres unmarked) was tested. Which “hERG current change (%, negative = inhibition) at 1uM” value did it give?
The value was 8.77%.
